# Test results as given in the supplement of paper PMC4166925.
# ± gives the standard deviation of the averaged measurements. The full ranking holds about 33,000 sequences; the median of “E-score (dimensionless, -0.5 to 0.5)” is about -0.046, and the highest 2% start at about 0.36. This is one part of the list.
# System: T1, SpTbr T-box DNA-binding domain (GST fusion)
# T1 sequence: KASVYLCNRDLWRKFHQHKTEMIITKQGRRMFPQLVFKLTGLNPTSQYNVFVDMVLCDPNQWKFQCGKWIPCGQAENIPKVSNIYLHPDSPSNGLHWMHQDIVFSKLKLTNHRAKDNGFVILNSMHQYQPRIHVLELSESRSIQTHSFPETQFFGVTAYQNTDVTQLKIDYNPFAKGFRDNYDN
# Test: PBM E-score of 8-mer (E-score (dimensionless, -0.5 to 0.5)); Tbr is Tbrain of the sea star Patiria miniata (Pm) or the sea urchin Strongylocentrotus purpuratus (Sp); higher = stronger binding preference; most listed sequences are background and not binding sites
# Settings: the construct has about 5 more residues each side
# Summary of the method: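 Using the Universal PBM Analysis Suite, every ungapped 8-mer received an enrichment E-score averaged over duplicate arrays. Probe intensities came from double-stranded Universal Agilent oligonucleotide arrays incubated with 200 nM GST-fused Tbr T-box DNA-binding domain in PBS (pH 7.5). That protein was expressed in BL21 E. coli at 20 °C and purified by glutathione affinity chromatography.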
row,Sequence,PBM E-score of 8-mer
1,ACAAAGGC,-0.0637 ± 0.024
2,AACGTGCC,0.0938 ± 0.0014
3,GGCACTGA,-0.00205 ± 0.045
4,AGCTTCTG,-0.129 ± 0.045
5,CTAACTTC,-0.214 ± 0.017
6,GGACCTCA,-0.171 ± 0.12
7,GCTTCAAA,0.0158 ± 0.019
8,ATGAGGGC,-0.156 ± 0.012
9,AACCTATG,-0.15 ± 0.014
10,AGCTTAAA,-0.262 ± 0.042
11,CGGTAAGC,-0.00241 ± 0.1
12,CCGCAAGC,-0.0779 ± 0.028
13,GTCGCGAC,0.362 ± 0.019
14,CACGTGCA,0.221 ± 0.049
15,CTTAGCAA,0.0388 ± 0.079
16,ACTGATTC,-0.253 ± 0.045
17,GAAATTCA,-0.00178 ± 0.056
18,CACAGAGC,-0.203 ± 0.064
19,AGATTTTG,-0.0277 ± 0.0094
20,GACATAAC,0.116 ± 0.07
21,AGTGTAGG,0.095 ± 0.022
22,ACTCAAGT,-0.0383 ± 0.033
23,GGGCTACA,-0.175 ± 0.018
24,TGCGGACA,0.103 ± 0.018
25,AACAACAT,0.187 ± 0.02

row,Sequence,PBM E-score of 8-mer
1,GCGCTTAC,0.216 ± 0.054
2,CACCCGCA,0.334 ± 0.013
3,CGCTGCTC,-0.0945 ± 0.057
4,CCTTAATC,0.0359 ± 0.024
5,AAATTCGC,0.221 ± 0.058
6,CTACAATC,0.0754 ± 0.02
7,CCGACAGG,0.143 ± 0.013
8,ATCGCGTG,0.262 ± 0.043
9,CAATACAG,-0.0537 ± 0.03
10,CTTTGGAA,-0.173 ± 0.015
11,CGGATATA,-0.257 ± 0.029
12,CAACGCCC,0.229 ± 0.048
13,TAAACAAA,0.102 ± 0.025
14,CGGCTTGA,-0.125 ± 0.012
15,CCTTACCA,0.118 ± 0.01
16,CCAGCACC,0.216 ± 0.04
17,ACTTAAAG,0.0858 ± 0.033
18,AATGTTAT,0.0346 ± 0.014
19,ACCACCCC,0.194 ± 0.017
20,CACCTCTA,0.416 ± 0.0043
21,CTGTTAAC,0.312 ± 0.028
22,AAGGTTAG,-0.0571 ± 0.0011
23,CGATCAGC,0.0172 ± 0.057
24,GGCCAGTA,-0.0711 ± 0.056
25,AGATCCCG,0.00833 ± 0.049

row,Sequence,PBM E-score of 8-mer
1,CAGGGCCC,-0.291 ± 0.021
2,CGTATTTA,-0.0462 ± 0.14
3,AGGCTACA,-0.0329 ± 0.013
4,ACTCTCAA,0.0757 ± 0.041
5,GGCCTCCC,-0.148 ± 0.037
6,ACTCCCAT,-0.0982 ± 0.07
7,AGAATTCA,-0.133 ± 0.013
8,CTTCTGGA,-0.229 ± 0.015
9,TGCTTCCA,-0.0681 ± 0.08
10,AGGGCCAG,-0.181 ± 0.0096
11,ACTGCAGT,0.154 ± 0.018
12,ACGAACAT,-0.194 ± 0.015
13,CGCTGTAA,0.062 ± 0.039
14,ACACATTG,0.368 ± 0.01
15,ATTGACTG,0.00428 ± 0.066
16,TTATACAA,-0.134 ± 0.085
17,ATTTTCGG,-0.0219 ± 0.042
18,CCGGGACG,-0.361 ± 0.025
19,CATCTCCA,0.062 ± 0.0073
20,GGGATTAA,-0.136 ± 0.024
21,ATAAGGAA,-0.225 ± 0.023
22,GTCATCTA,-0.0343 ± 0.015
23,GACATGCC,-0.0319 ± 0.0052
24,AGAAATCT,-0.213 ± 0.018
25,AGCCCTAC,-0.268 ± 0.0059

row,Sequence,PBM E-score of 8-mer
1,GTGTTGCA,0.252 ± 0.011
2,CAATAGCG,0.0305 ± 0.023
3,CTATTAAC,0.127 ± 0.062
4,TGGGAGAA,-0.0254 ± 0.0022
5,ATCAGCCG,-0.123 ± 0.047
6,ACATCCGC,0.0136 ± 0.097
7,CATCCGAC,-0.108 ± 0.023
8,ACAGGATG,-0.111 ± 0.049
9,ACAGGAGA,-0.145 ± 0.039
10,ACTCCCAG,0.0858 ± 0.029
11,CTCCGTGC,-0.0991 ± 0.035
12,ACAGGGAC,-0.102 ± 0.0015
13,ATCAACAG,0.0731 ± 0.027
14,AGATAGAA,-0.0892 ± 0.033
15,TAAACCCA,-0.148 ± 0.0035
16,CTTATCGA,0.163 ± 0.03
17,AGCTCCAT,-0.315 ± 0.018
18,GGTATATA,-0.0429 ± 0.029
19,ACACTATA,0.23 ± 0.03
20,CATGAGGC,-0.124 ± 0.056
21,GTCTATAA,-0.0104 ± 0.0026
22,AAGATAGG,-0.229 ± 0.0052
23,AGCATATG,-0.0659 ± 0.049
24,ATTGGGGC,-0.0682 ± 0.045
25,AAGGCCCG,-0.318 ± 0.03

row,Sequence,PBM E-score of 8-mer
1,ACAAATCG,0.196 ± 0.025
2,GCGATGCC,0.0595 ± 0.015
3,GTGAGCAA,0.265 ± 0.015
4,CCTAGGAC,0.0978 ± 0.0063
5,GAGTCAGC,-0.0991 ± 0.088
6,CCCCTCAC,0.262 ± 0.045
7,GCTTCTGA,-0.0414 ± 0.064
8,AGACATGA,0.132 ± 0.015
9,GGAACTTA,-0.159 ± 0.056
10,AAGAGCGT,-0.0424 ± 0.019
11,ATTCACAC,0.4807 ± 0.0029
12,GCTACGCA,-0.0506 ± 0.019
13,ATACCTCG,0.00151 ± 0.043
14,CCTATCGC,0.149 ± 0.041
15,AAGCGGGC,-0.113 ± 0.017
16,AGACGGCA,0.00839 ± 0.028
17,ATGGCGCC,0.165 ± 0.0062
18,AATCGCGA,0.3847 ± 0.00013
19,TATGTCAA,0.159 ± 0.0082
20,CCGATCCG,-0.0886 ± 0.024
21,AAGTCGCA,0.28 ± 0.038
22,CCATAAGC,-0.172 ± 0.05
23,CAGCACTG,-0.0534 ± 0.077
24,GGCAAGGA,-0.244 ± 0.051
25,CCGGTAAA,-0.2 ± 0.051

row,Sequence,PBM E-score of 8-mer
1,AAGAGAGC,-0.199 ± 0.0097
2,ACTCGACC,-0.0433 ± 0.057
3,ATAGATAA,-0.101 ± 0.015
4,CACTGTAG,0.053 ± 0.033
5,AGAGCGCC,-0.0169 ± 0.049
6,AGTACCGA,-0.261 ± 0.026
7,GCCACAAC,0.0707 ± 0.044
8,CCACAGGC,-0.146 ± 0.12
9,AGCCATCG,-0.0175 ± 0.019
10,GACTGATC,-0.171 ± 0.054
11,AAGCCCGC,-0.0846 ± 0.0062
12,ACGAGCCA,-0.0748 ± 0.035
13,GATTGACC,-0.0313 ± 0.036
14,GATTGACA,0.2837 ± 0.00092
15,AGGGTCTG,-0.176 ± 0.011
16,AGTCTAAT,0.00585 ± 0.07
17,CAGACCAG,-0.239 ± 0.019
18,CCTGTGCA,-0.0844 ± 0.033
19,AGACATTC,-0.1282 ± 0.0002
20,CCAAAGAA,-0.241 ± 0.035
21,ATAACTTA,-0.049 ± 0.042
22,CCCCGCCG,-0.106 ± 0.084
23,GAGTTGTA,0.201 ± 0.018
24,CATTAACA,0.329 ± 0.029
25,CGACTGAG,-0.101 ± 0.021

row,Sequence,PBM E-score of 8-mer
1,AGTGGAAT,-0.0775 ± 0.014
2,CCTAACGC,0.152 ± 0.0044
3,CATCAGTA,-0.126 ± 0.054
4,AGCTGAAT,-0.142 ± 0.0049
5,AACCGAGG,-0.0751 ± 0.0094
6,CGTTCCTC,-0.148 ± 0.039
7,CACTGTTA,0.152 ± 0.04
8,ACCGCTGC,0.0922 ± 0.006
9,CATTGTAA,-0.0254 ± 0.0014
10,CATCATGA,-0.186 ± 0.057
11,ACGACTCC,-0.0524 ± 0.027
12,AACCGCAG,-0.0985 ± 0.026
13,ACAGCTGC,0.213 ± 0.044
14,ATAACCTG,0.0328 ± 0.059
15,ATGATTGA,0.0921 ± 0.024
16,CTGACCTA,-0.222 ± 0.084
17,GGAGGGCC,-0.235 ± 0.047
18,ACCACACA,0.248 ± 0.037
19,CCACGCAC,0.126 ± 0.019
20,ATATGGTC,-0.197 ± 0.0088
21,ATCTGCCA,-0.0509 ± 0.028
22,CTCGCTTA,0.0203 ± 0.037
